Test results from PubChem BioAssay AID540267 (National Center for Advancing Translational Sciences (NCATS), 2011).
The campaign covered roughly 340,000 compounds. About 530 (0.16%) were called active. Inconclusive results, whose numbers are uncertain, are shown with a selection of clear calls. Rule as the data show it: active = activity change below about -80%; inconclusive = between about -30% and that limit; inactive = weaker than that. Peptide text beside a SMILES is read from it. * marks the point of attachment. Boc = CC(C)(C)OC(=O)*; OBn = c1ccc(CO*)cc1

Assay: Small Molecules that selectively kill Giardia lamblia: qHTS;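 also: parasites exposed to compound for two days anaerobically before the ATP read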
Settings: Giardia lamblia trophozoite viability; at 7.66 µM; stronger effect = lower value
How it was run: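 Viability, read as ATP luminescence: trophozoites at 100 cells/well, compound added, 48 hrs anaerobic at 37 deg C, then 15-30 min room-temperature development before reading.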
% is scaled to controls: 0 for no effect and ±100 for the full control effect.

Structure (SMILES) | activity change
O=C1C(Cc2ccccc2)Nc2ncnc(N3CCN(c4ccccc4)CC3)c2N1Cc1ccccc1 (stereo not drawn) | inactive: 7.4%
CC(C)(C)OC(=O)NCC(=O)NCC(=O)OCc1ccccc1 (Boc-Gly-Gly-OBn) | inconclusive: -30.1% [inhibitor]
Cc1ccccc1NC(=O)CSCc1nc(N)nc(Nc2ccccc2C)n1 | inactive: -8.97%
COc1ccc(C(=O)NC(=S)NNC(=O)c2ccncc2)cc1Br | inconclusive: -30% [inhibitor]
COc1cccc(C(O)c2nc3ccccc3n2C)c1 (stereo not drawn) | inconclusive: -38.3% [inhibitor]
CC1CCN(CCc2nc3cc(NC(=O)C(C)C)ccc3n2C)CC1 | inconclusive: -31.3% [inhibitor]
CCc1nnc(NC(=O)c2ccc(-c3ccc([N+](=O)[O-])cc3Cl)o2)s1 | inconclusive: -33.4% [inhibitor]
Cc1ccc(NC(=O)c2ccc(C)cc2)cc1 | inconclusive: -33.9% [inhibitor]
CCC(C)Sc1nc2c(c(=O)[nH]1)C(c1cccs1)C1=C(CCCC1=O)N2 (stereo not drawn) | inactive: -9.58%
C(=C\c1nccc2c1[nH]c1ccccc12)/c1ccccc1 | inconclusive: -34.8% [inhibitor]
CCN(CC)CCNC(=O)c1ccc(NC(=O)COc2ccc3c(c2)CCC3)cc1 | inconclusive: -45.5% [inhibitor]
Cc1ccc(SCC(=O)Nc2nccs2)cc1 | inactive: 24.5%
CCCCCC(=O)N/N=C/c1ccc([N+](=O)[O-])o1 | active: -103%
Cc1ccc(OCCC(=O)Nc2ccc(C)c(F)c2)cc1 | inconclusive: -30.1% [inhibitor]
Cc1ccc(N2Cc3ccccc3C2=O)cc1 | inconclusive: -41.9% [inhibitor]
O=C(O)CCN1C(=O)C2C3c4ccccc4C(c4ccccc43)C2C1=O (stereo not drawn) | inconclusive: -46.7% [inhibitor]
CCC(C(=O)OC(C)C(=O)Nc1ccc(Cl)cn1)c1ccccc1 (stereo not drawn) | inconclusive: -32.6% [inhibitor]
Cc1c(C=O)c(Cl)n(C)c(=O)c1C#N | inactive: -5.17%
COc1ccccc1Nc1cc(C)nc(Nc2ccccc2OC)n1 | inactive: -14.1%
Cc1cnn(CCC(=O)NNC(=S)NCC(C)C)c1 | inconclusive: -32.9% [inhibitor]
COc1ccccc1S(=O)Cc1ccc(C(=O)NC2CCCC2)o1 (stereo not drawn) | inactive: -9.53%
CC(=O)c1cc(N2CCOCC2)ccc1[N+](=O)[O-] | inconclusive: -67.7% [inhibitor]
O=C(c1ccc2oc(Cc3ccc(Cl)cc3)nc2c1)N1CC[C@H](O)C1 | inconclusive: -32.5% [inhibitor]
O=C1/C(=C/c2ccc(Cl)cc2)SC(=S)N1CCC(=O)N1CCCCC1CCO (stereo not drawn) | inactive: 6.72%
CC(=O)c1sc(NC(=O)C2COc3ccccc3O2)nc1C (stereo not drawn) | inconclusive: -34% [inhibitor]
C#CC[N+](CC)(CC)CC#Cc1ccccc1 | inactive: -6.23%

Structure (SMILES) | activity change
COc1cc(C(=O)O)cc(NC(=O)c2ccco2)c1OC | inconclusive: -31.4% [inhibitor]
COC(=O)C(Cc1ccc(OC(=O)c2ccc(Cl)cc2)cc1)N1Cc2ccccc2C1=O (stereo not drawn) | inactive: -13.5%
COCCN(CC1CCCN(C2Cc3ccccc3C2)C1)C(=O)CSC (stereo not drawn) | inconclusive: -34.2% [inhibitor]
CC1CCCC(C)N1/N=C/c1ccccc1C(=O)O (stereo not drawn) | inconclusive: -32.4% [inhibitor]
CCN1CCN(c2nc3c(c(=O)[nH]c(=O)n3C)n2CCSc2nc3ccccc3s2)CC1 | inactive: 2.63%
CSCCC(=O)N1CCN(CC(=O)N2CCCC2)CC1 | inconclusive: -36.2% [inhibitor]
C[C@H]1CN([C@@H](C)CO)C(=O)Cc2cc(NS(=O)(=O)c3ccc(Cl)cc3)ccc2O[C@@H]1CN(C)C(=O)Nc1cccc2ccccc12 | inactive: 22.2%
O=C1C(=O)c2ccccc2C(O)=C1CC=C(Cl)Cl | inactive: 4.05%
O=C(COc1cccnc1[N+](=O)[O-])NCc1ccc2c(c1)OCO2 | inconclusive: -39.7% [inhibitor]
Cc1ccc(-n2nc(C(=O)N3CCOCC3)cc2-c2ccc(Cl)cc2)cc1 | inconclusive: -39.2% [inhibitor]
CS/C(=N\S(=O)(=O)c1cccs1)Nc1cccc(Cl)c1C | inconclusive: -34.7% [inhibitor]
O=C(NCCCO)c1cc([N+](=O)[O-])cc2c1C=Cc1ccccc1O2 | inconclusive: -78.9% [inhibitor]
COc1ccc(C(O)Cc2nc3ccccc3n2C)cc1OC (stereo not drawn) | inconclusive: -31.4% [inhibitor]
CCN1CCN(Cc2ccc(NC(=O)Nc3ccccc3)cc2)CC1 | inconclusive: -45.7% [inhibitor]
O=C(O)C1C2C=CC3(CN(Cc4ccco4)C(=O)C13)O2 (stereo not drawn) | inconclusive: -37.5% [inhibitor]
COc1ccc2[nH]c(C(=O)N3CCN(Cc4ccccc4)CC3)cc2c1OC | inactive: 3.81%
Cc1onc(-c2ccccc2)c1C(=O)N(Cc1ccccc1)C(C)C | inconclusive: -46.3% [inhibitor]
CCN(c1ccccc1)S(=O)(=O)c1ccc(OC)c(NC(=O)Cc2ccc(F)cc2)c1 | inconclusive: -32.2% [inhibitor]
COc1cc(C2Nc3ccccc3C(=O)N2c2ccc3c(c2)OCCO3)ccc1OCC(C)C (stereo not drawn) | inconclusive: -50% [inhibitor]
CC(C)c1ccc(-c2nc3ccccc3s2)cc1 | inconclusive: -73.5% [inhibitor]
COc1cc(SC)ccc1C(=O)Nc1nc2ccccc2[nH]1 | active: -98.6%
Cc1sc(N)nc1-c1ccc2c(c1)OCCO2 | inconclusive: -33.6% [inhibitor]
Cc1cc(C)n(C(=O)c2c([N+](=O)[O-])c(C)nn2C)n1 | inactive: -8.78%
CC(=O)c1c(Cl)nc2ccc(Br)cc2c1-c1ccccc1 | inconclusive: -31.6% [inhibitor]
Cc1cccc(N2CCN(S(=O)(=O)c3ccc4c(c3)CC(C)N4C(=O)C3CC3)CC2)c1C (stereo not drawn) | inconclusive: -36.7% [inhibitor]
Fc1ccccc1CNc1ncnc2sccc12 | inactive: -5.81%

Structure (SMILES) | activity change
O=C(Nc1ccc(Cl)cc1F)C1CCN(S(=O)(=O)c2cccnc2)CC1 | inconclusive: -34.4% [inhibitor]
Cc1cc(-n2c(C)cc(C(=O)COc3cccnc3[N+](=O)[O-])c2C)no1 | inconclusive: -41.8% [inhibitor]
COc1ccc(CC2(CO)CCN(C(C)COc3ccccc3)CC2)cc1 (stereo not drawn) | inactive: 22.8%
CCOC(=O)c1c(NC(=O)/C=C/C(=O)O)sc(C)c1-c1ccc(C)c(C)c1 | inactive: 14.2%
O=C(C1CCC(=O)N(C2CCCC2)C1)N1CCN(c2ccccc2Cl)CC1 (stereo not drawn) | inactive: 20.8%
O=C(c1c[nH]c(C(=O)C(Cl)(Cl)Cl)c1)c1ccccc1Cl | inconclusive: -37.3% [inhibitor]
CCN(CC)CCOC(=O)c1ccc(N/C=C(/C#N)c2nc(-c3ccc4c(c3)OCO4)cs2)cc1 | active: -103%
Cc1cc(C(=O)N=Nc2c(O)n(C(C)C)c3ccccc23)n[nH]1 | inactive: 11.3%
CCCCn1c(CCNC(=O)CCC)nc2ccccc21 | inconclusive: -34.9% [inhibitor]
Cn1cnc([N+](=O)[O-])c1C(=O)Nc1cccc([N+](=O)[O-])c1 | inconclusive: -43% [inhibitor]
CC(=O)CSc1ccc(-c2nc3ccccc3[nH]2)cn1 | inconclusive: -63.3% [inhibitor]
C=CC[C@@H](CC(=O)NCCO)C(=O)N[C@H](COC(=O)[C@H](CC=C)CC(=O)OC(C)(C)C)Cc1c[nH]c2ccccc12 | inconclusive: -36.5% [inhibitor]
O=C(CN1c2ccccc2Sc2ccccc21)NNC(=O)Nc1ccc(Cl)c(Cl)c1 | inconclusive: -31.8% [inhibitor]
Cc1cc(C)c2c(N)c(C(=O)Nc3ncc(C)s3)sc2n1 | active: -108%
O=C(NC1CCCC1)C(c1ccncc1)N(CCCN1CCOCC1)C(=O)c1ccc(-c2ccccc2)[nH]1 (stereo not drawn) | inconclusive: -32.6% [inhibitor]
COC(=O)N[C@@H]1C[C@H]2[C@@H]3CC[C@H]4C[C@@H](OC)CC[C@]4(C)[C@H]3CC[C@@]12C | inconclusive: -36.5% [inhibitor]
O=[N+]([O-])c1nn(-c2ccc(Cl)cc2)n(O)c1=NCc1ccncc1 | inconclusive: -73.3% [inhibitor]
Cc1ccc(-c2cc(C(=O)N3CCN(C4CCS(=O)(=O)C4)CC3)c3ccccc3n2)cc1 (stereo not drawn) | inconclusive: -33.8% [inhibitor]
C=CCC(=O)N1CCCC(CNC(=O)c2ccc(-c3ccccc3)cc2)C1 (stereo not drawn) | inconclusive: -31.3% [inhibitor]
Cc1ccc(C=Nc2ccccc2C(=O)Nc2ccccc2)cc1 | inconclusive: -30.2% [inhibitor]
Brc1ccc(OCCCOc2cccc3cccnc23)cc1 | inactive: 4.71%
c1ccc(-c2nc3cc4ccccc4cc3[nH]2)nc1 | inconclusive: -61.4% [inhibitor]
CCOC(=O)c1c(S(=O)(=O)Nc2ccccn2)c(C)n(C)c1C | inconclusive: -37% [inhibitor]
Cc1ccc(Cn2c(C(CO)Nc3nc(-c4ccc(Cl)c([N+](=O)[O-])c4)cs3)nc3ccccc32)cc1 (stereo not drawn) | inconclusive: -41.2% [inhibitor]
O=C(NC(=S)NN1CCCCC1c1cccnc1)c1ccc(Cl)cc1Cl (stereo not drawn) | inactive: -2.68%
O=C(c1ccccc1)[C@@H]1[C@@H]2C(=O)N(c3ccc(F)cc3)C(=O)[C@@H]2C2CCCN21 (stereo partly drawn) | inactive: -17.1%
